The whole screen tested about 340,000 compounds, of which about 530 (0.16%) were called active. Inconclusive results, whose numbers are uncertain, are shown with a selection of clear calls. Rule as the data show it: active = activity change below about -80%; inconclusive = between about -30% and that limit; inactive = weaker than that.
assay: Small Molecules that selectively kill Giardia lamblia: qHTS; conditions: Giardia lamblia trophozoite viability; at 7.66 µM; active compounds read low;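 also: parasites exposed to compound for two days anaerobically before the ATP read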
Outline: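 Trophozoite viability was measured as ATP-dependent luminescence, read 15-30 min after reagent addition. Before that, parasites at 100 cells/well were exposed to compounds for 48 h, anaerobically, at 37 deg C.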
% is scaled to controls: 0 for no effect and ±100 for the full control effect.

SMILES	activity change
COc1ccc(-n2ncc3c(N4CCCCC4)ncnc32)cc1	active: -81.8%
Cc1ccccc1C(=O)Nc1nnc(SCC(=O)NCc2ccco2)s1	inconclusive: -32.7% [inhibitor]
O=C(O)C1=CC[C@@H](c2ccc(Cl)cc2)N(S(=O)(=O)c2ccc(Cl)cc2)C1	inconclusive: -41.6% [inhibitor]
COc1cc(C2(O)CCCCC2C)cc(OC)c1OC (configuration not stated)	inconclusive: -34.8% [inhibitor]
COc1ccc(S(=O)(=O)NNC(=O)c2cc3c4ccccc4n(C)c3s2)cc1	inactive: 2.65%
O=c1cc[nH]c2ccc(Cl)cc12	inconclusive: -35% [inhibitor]
CCn1c(/C=C/c2ccccc2)nc2ccccc21	inconclusive: -31.4% [inhibitor]
Cc1cnc(NC(=O)c2sc3ccccc3c2Cl)s1	inconclusive: -52.2% [inhibitor]
CCOC(=O)CSC1=NC(=O)/C(=C\c2ccc(Cl)cc2)S1	inactive: -6.67%
CCOC(=O)N1C(=O)[C@@](c2ccc(Cl)cc2)(C(C)C)N1C(=O)OCC	inconclusive: -33.5% [inhibitor]
COc1ccc(N(CC(=O)N/N=C/c2cccc(OC)c2OC)S(=O)(=O)c2ccccc2)cc1	inconclusive: -46.4% [inhibitor]
COc1cccc2[nH]c(C(=O)NCC3CCCO3)cc12 (configuration not stated)	inconclusive: -39.4% [inhibitor]
CN1C(=S)SC(N(O)C=C2C=CC(=O)C=C2)C1(C)C (configuration not stated)	inconclusive: -33.6% [inhibitor]
Cc1sc2ncnc(SCC(=O)NCC(C)C)c2c1C	inconclusive: -32.1% [inhibitor]
O=C(NCC1CCCO1)c1cccc2ccccc12 (configuration not stated)	inconclusive: -34.2% [inhibitor]
Cc1cc(Cl)c2oc(C(=O)N3CCN(C(=O)c4ccco4)CC3)c(C)c2c1	inactive: 21%
CCn1cc(C2CC(=O)NC2=O)c2ccccc21 (configuration not stated)	inconclusive: -34.2% [inhibitor]
FC(F)(F)c1cc(-c2cccs2)nc(-n2cc(Cl)cn2)n1	inactive: 16.7%
Cc1ccnn1CCC(=O)O	inconclusive: -31.9% [inhibitor]
O=[N+]([O-])c1ccc2[nH]c(O)c(N=Nc3ccc(F)cc3)c2c1	inconclusive: -30.3% [inhibitor]
CC(=O)N1CCc2cc(S(=O)(=O)CCC(=O)NCc3ccc(F)cc3)ccc21	inactive: 2.42%
O=C(CNC(=O)c1ccncc1)N/N=C/c1ccccn1	inactive: -0.282%
Clc1ccc2c(N/N=C/c3ccc(Br)cc3)ccnc2c1	active: -95.6%
Cc1[nH]c2ccccc2c1/C=N/Nc1nc(N2CCCCC2)nc(N2CCCCC2)n1	inconclusive: -47.3% [inhibitor]
COc1ccc(NC(=O)N(C)C[C@H]2Oc3ccc(NS(=O)(=O)c4ccc(F)cc4)cc3C(=O)N([C@H](C)CO)C[C@@H]2C)cc1	inconclusive: -37.6% [inhibitor]
CCOC(CN=c1nc(N(C)C)ss1)OCC	inconclusive: -44.7% [inhibitor]

SMILES	activity change
CCCOc1ccc(C(=O)Nc2ccc(Cl)cn2)cc1	inconclusive: -35.6% [inhibitor]
O=C(NCCc1ccccn1)c1cc(-c2ccc(Cl)c(Cl)c2Cl)nc2ccccc12	inconclusive: -35.7% [inhibitor]
Cc1ccc(S(=O)(=O)n2nc(-c3ccco3)nc2SCc2ccccc2)cc1	inactive: -7%
CC(=O)c1sc(NC(=O)c2ccc(C)c(C)c2)nc1C	inconclusive: -48.7% [inhibitor]
COc1ccc(C2=NN(C(=O)c3ccccc3)C(c3cccc([N+](=O)[O-])c3)C2)cc1 (configuration not stated)	inconclusive: -31.1% [inhibitor]
COC(=O)c1ccc(C(=O)Nc2ccc(C(C)C)cc2N)cc1	inactive: 16.6%
Cc1occc1C(=O)N/N=C/c1ccc2c(c1)OCO2	inconclusive: -34.9% [inhibitor]
CCNc1nc(=S)nc(NC(C)C)[nH]1	inactive: -16.9%
O=C(COC(=O)Cn1cnc2ccccc21)Nc1cccc2c1C(=O)c1ccccc1C2=O	inconclusive: -30.5% [inhibitor]
Clc1ccc(CNc2ccc3nnc(-c4ccccc4)n3n2)cc1	inconclusive: -33.4% [inhibitor]
CC1Sc2ccc(S(=O)(=O)NCCc3ccccc3)cc2NC1=O (configuration not stated)	inconclusive: -39.8% [inhibitor]
O=[N+]([O-])c1ncn(Cc2c(Cl)cccc2Cl)n1	inconclusive: -45.3% [inhibitor]
CC(=O)c1c(COC(=O)c2ccccc2)nc2ccccc2[n+]1[O-]	inconclusive: -36.5% [inhibitor]
O=S(=O)(c1ccccc1)N1CCN(S(=O)(=O)c2ccccc2)CC1	inconclusive: -76.5% [inhibitor]
S=C(c1ccc(-c2ccccc2Cl)o1)N1CCCCC1	inactive: -10.4%
CCOc1cccc2sc(=NC(=O)CCS(=O)(=O)c3ccccc3)n(CC)c12	inconclusive: -40.3% [inhibitor]
COc1ccccc1NC(=O)CSC1=NCCN1	inactive: -5.46%
N#CN(Cc1ccccc1)Cc1ccccc1	inactive: -9.07%
COc1cc2c(cc1Cl)C(=O)C(F)(c1ccccc1)C(=O)N2 (configuration not stated)	inconclusive: -41.9% [inhibitor]
Cc1cccc(-n2cnc3cc([N+](=O)[O-])ccc32)c1	inconclusive: -31.8% [inhibitor]
OCc1nnn(-c2ccccc2)c1CO	inconclusive: -32.6% [inhibitor]
COCCCNC(=O)c1ccc(CS(=O)(=O)c2ccc(OC)cc2)o1	inconclusive: -38.1% [inhibitor]
O=c1c(Cl)c(O)c2cccc3c4ccccc4n1c23	inactive: 3%
COc1ccccc1C(=O)NC(=O)COC(=O)Cn1cnc2c1c(=O)n(C)c(=O)n2C	inconclusive: -34.1% [inhibitor]
CC(C)(C)OC(=O)N1CCC(C(=O)Nc2cccc(C(=O)NC3CC3)c2)CC1	inconclusive: -34.4% [inhibitor]
COc1ccc(-n2nc(C(=O)NCC(=O)Nc3ccc(F)cc3)c3ccccc3c2=O)cc1	inactive: 5.31%

From PubChem BioAssay AID540267 (National Center for Advancing Translational Sciences (NCATS), 2011)
